# Data taken from PMC8178691.
# Several values for one entry are separate records, joined by “and”; a condition that tells them apart may be missing. Equal entries are not always repeated.
# Tests used:
# [1] = target: Human type IV collagen (human) (UniProt P02462); assay: BLI
# [2] = target: human purified plasma‐derived fibronectin (human); assay: BLI
# [3] = target: human purified plasma‐derived fibronectin (human); assay: ELISA
Kd [1] [nM],Kd [2],binding as percent of normal VWF [3] [%],Substance
2.25,1.63 nM and 2.62 nM and 1.36 nM,–,"Wild‐type (WT) human recombinant von Willebrand factor (a stretch of the chain, sequence not shown) (natural protein)"
–,–,70,"recombinant VWF p.H1786D (a stretch of the chain, sequence not shown) (natural protein)"
–,–,64,"recombinant VWF p.T791M (a stretch of the chain, sequence not shown) (natural protein)"
